Our source for the minimal protective dose values is article PMC11964917 (Nature Microbiology, 2025).

The test system of the assay is B/Laos/0080/2016 (Victoria). Also noted: species or system BALB/c mice. The settings on record: mouse, in vivo.

In turn, `CC(=O)N[C@H]1[C@H]([C@H](O)[C@H](O)CO)OC(C(=O)O)=C[C@@H]1N=C(N)N` [ZAN, zanamivir] gave a minimal protective dose of 1 mg/kg.
